No constants are given. Whether binding was seen depends on the method and setting. Some results given as binding are weak or reduced against the parent protein; the word gives no strength. Sequences can lack the tags named with a protein. Each block holds one binder with its values, some of them ahead of it.
Biological target: T1, full length Gyp6p (two-hybrid fusion) (yeast) (UniProt P32806)
T1 sequence: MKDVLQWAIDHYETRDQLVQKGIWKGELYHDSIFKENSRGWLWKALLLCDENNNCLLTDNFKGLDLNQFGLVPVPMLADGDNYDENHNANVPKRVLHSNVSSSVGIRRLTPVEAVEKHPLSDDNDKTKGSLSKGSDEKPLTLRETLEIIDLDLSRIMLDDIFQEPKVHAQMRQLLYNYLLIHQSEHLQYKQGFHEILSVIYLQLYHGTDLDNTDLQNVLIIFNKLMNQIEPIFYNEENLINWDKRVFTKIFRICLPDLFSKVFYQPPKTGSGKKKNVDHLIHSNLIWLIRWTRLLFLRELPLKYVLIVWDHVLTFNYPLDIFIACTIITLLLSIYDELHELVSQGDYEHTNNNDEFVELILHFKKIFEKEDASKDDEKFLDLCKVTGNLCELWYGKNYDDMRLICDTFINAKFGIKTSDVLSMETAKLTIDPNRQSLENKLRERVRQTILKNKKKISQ
Assay: two-hybrid; pGADT7 fusions in AH109 mated with pGBKT7 fusions in Y187; growth of diploids on medium without histidine (Figure 1C also without adenine)

binding: no binding
B1: Trs130p lacking the carboxy-terminal 50 amino acids (two-hybrid fusion) (domain or fragment, UniProt Q03660 1-1052)
chain: MDKEIYCGSVPVSYFDPFDLFESLRPEFQQILPLDNIHWKAFDGTVRTVNRLPIELIPEGRGEADKSNDEQPFIRFLIVNCISIDQYRAKVRPLVRQWLPNLESVSSSTGEKMIYKPIILLYANSEVVDSNLFKSVSLMEKFGKDFPHVQTLEVRSVYRSPKERQEFWNQFSQKIKASVLSIFQKRLTHLQHSLANLQKGNNFEEQLLTREKLYELYVVFNILEDASLELQKIKKEILRRNMNMPDGKLQVPFESSSKSDESLGSIIIEGTLDKFQLHKYFFIRRLRLLKLEDQTLTAFVGAFQLIKNFIESISIEYRKSVRLLEFKHYFITSMLSYFEFENVSNPLLCEIKAELLMLKRDNWVQGVMATSGYRLMDKNYPNSDVKYKFDLLKETFVDETVFQENFLTLTKEILSLFNKCEGKRQRIVDILSIEIGLLYYQGKKYEEAVSLFLSCYEYYTQTNWNSIGLKILQVFIDSLSHCPKLDVLQIDGESVSASAVLTNAFLNILKLCKDNDSKEIWWKKFMDLQMKNNIHLMYPLDGLFEVTLNSKVHLARANVSAIEVNLKSYGFPEDISTKTMRLSLKNMGGDVIVFGASDFLLKKGENKLILECRDIMYGEFSLLSFEIIVEGITFVKEFPENQDEFIVVPEIYCKESTKVLVKQAHNLNLGEYALELKSVQSDALESLQVEVEVQKNIGNMKNLPVSFSMDEIQARKRYNTPFENVRLEYYLLDQITAFDLIIKTSFTKKNDQGTFGETKKVRIQCYLQLSVSVEDIFKKDIFFFKFLLNSSVREEPVILYSSELSAPDTRNDYNIRGDYIATTPALITFDGNESFINCYEITANNNFDSKDIFNLKVRYNTLKEQLDCFITDAVLIEGDVEWFILFEKWKTFWELEILKKLKYDYDAFKENRIIRLLKTSIDLNKTKSKIRNLCIEKAVLDKILICLNKVSRGIAVCNTDMDEYVRNLVPKQLTVPVQLPGFEQFFHVQFEQMETSHDALHDTIATIGNSLSYTVIVENLSGQWGQDVIDDGGYIFEILSSNEWLIHGQKRC

binding: no binding
B6: TRS65 (two-hybrid fusion) (protein, UniProt P32893 1-560)
chain: MECFVPLRCDLDGSNIEQLRQSHLSRKFIIFDEQLNLWLWFQGNSQENKRFVLQNMIILINEAQVTRTSTIDDYFTQVENNENLWRLKNDCCSKILFKSNVVMNNGYNNQIKFVFEYKSVDANFNNQDSLQDPQAKYTLDKYSSEEILPSFEPVYSWSSAATKSSKNTNNHLEKNNRATHRVSSKNSEVHEADVSRNPNTFTLKLQYPIFSLLNMRLRNISLKSEHCILSSLDFQTSKASEQLTKKFIYPQEHNSFLKLNFQEISYKLIDGTSQIELDPICPLKVPLTAFSYDSISATFKLVLLPKSTQPHRVKITLAYELELHPNLKLPVRTSWETEVTLKRSMPISSTSSQYSSNNNNTNHSASFNGAANNVNSGGLANLRLGGVSSSRFSLGAASTTSLVNSKLSNVKFKFINSNIKVIKGEKFTMRLQIINSSSSPLDLVVYYNNTINPIPSANNVRNSNGINNCGMNNGTIPNSPLTLENQYQLHNKYRKIAEGIILLSNDYKIPVVPPRETYFADLRFIGIMSGYYGTLSGLKVLDLNTNELIEVGNGASVLIQ

binding: binds
B7: Trs130p (two-hybrid fusion) (protein, UniProt Q03660 1-1102)
chain: MDKEIYCGSVPVSYFDPFDLFESLRPEFQQILPLDNIHWKAFDGTVRTVNRLPIELIPEGRGEADKSNDEQPFIRFLIVNCISIDQYRAKVRPLVRQWLPNLESVSSSTGEKMIYKPIILLYANSEVVDSNLFKSVSLMEKFGKDFPHVQTLEVRSVYRSPKERQEFWNQFSQKIKASVLSIFQKRLTHLQHSLANLQKGNNFEEQLLTREKLYELYVVFNILEDASLELQKIKKEILRRNMNMPDGKLQVPFESSSKSDESLGSIIIEGTLDKFQLHKYFFIRRLRLLKLEDQTLTAFVGAFQLIKNFIESISIEYRKSVRLLEFKHYFITSMLSYFEFENVSNPLLCEIKAELLMLKRDNWVQGVMATSGYRLMDKNYPNSDVKYKFDLLKETFVDETVFQENFLTLTKEILSLFNKCEGKRQRIVDILSIEIGLLYYQGKKYEEAVSLFLSCYEYYTQTNWNSIGLKILQVFIDSLSHCPKLDVLQIDGESVSASAVLTNAFLNILKLCKDNDSKEIWWKKFMDLQMKNNIHLMYPLDGLFEVTLNSKVHLARANVSAIEVNLKSYGFPEDISTKTMRLSLKNMGGDVIVFGASDFLLKKGENKLILECRDIMYGEFSLLSFEIIVEGITFVKEFPENQDEFIVVPEIYCKESTKVLVKQAHNLNLGEYALELKSVQSDALESLQVEVEVQKNIGNMKNLPVSFSMDEIQARKRYNTPFENVRLEYYLLDQITAFDLIIKTSFTKKNDQGTFGETKKVRIQCYLQLSVSVEDIFKKDIFFFKFLLNSSVREEPVILYSSELSAPDTRNDYNIRGDYIATTPALITFDGNESFINCYEITANNNFDSKDIFNLKVRYNTLKEQLDCFITDAVLIEGDVEWFILFEKWKTFWELEILKKLKYDYDAFKENRIIRLLKTSIDLNKTKSKIRNLCIEKAVLDKILICLNKVSRGIAVCNTDMDEYVRNLVPKQLTVPVQLPGFEQFFHVQFEQMETSHDALHDTIATIGNSLSYTVIVENLSGQWGQDVIDDGGYIFEILSSNEWLIHGQKRCAIKEKRKEFEVHLIPLKKGYLNFPRVEITNINGKSCRVDHSNAFESILIF

binding: no binding
B9: TRS85 (two-hybrid fusion) (protein, UniProt P46944 1-698)
chain: MVFSYEHYMNLLFHLDNSKETVPPEIAKRIISNAIAPVITVTSTPLFDKHIQETYKVDSLYMLLRFFGGCVSDRDQANEAKVGQHEHEVCDASDSTDSIPKNKNLEVPNLSKKGSRSRSNSLFQRDSTQSQYIRFTRPLGDLIETRDANDMLFNYHSLEVFLDNYLKLVAANTDEMVPHNLLKKSIYHSFFSLAISSTNNLSPYETFNHPILSLIALDISNGEVYEDARDLLVNFKNLNHNTENFPIFMNTNEMLPVFLLCYNDDSQEEFEKCQALAKKLKKQLFVESILLALWKDSFIYDENSVIQLHQPVMSSLEEILFFLQAPTQTTLSLALINSIYDMLDYLVYDLMIPFMKRKVSFWEETILQPRKSLFNGAKFFKKFMNKNPVNGNHQHNSLTRDSQGNEYFASSSSEFLMRKLADWSMMLSDFKTAYSTYESLMDDLDAFPKYLASCIEWCAVSLLMGAQSIVTVKMIKNDINPLIERALATYENCSRIQRGKGKESNSLDVTEPVRSYETRCMILASELFLSLSNTWTSTPYAIQYLETILDECKLGPCSQIMVWERLSDCYNLRVDPRIKHRVGAMKKDAKDTEDLRGEHKYSTDHFTDEDILSEGLTRRRKAAFFRLIAAKKWAEQKQWRQVSWCLKDIESTYSEIKFLHGNGLILSKLKNQLNLKDVDSAPRPSEKNLTRTSVSFIG

More lines, now with the values behind:

B2: TRS20 (two-hybrid fusion) (protein, UniProt P38334 1-175)
chain: MPQYFAIIGKKDNPVYEIEFTNAENPQGFPQDLKELNPFILHASLDIVEDLQWQINPTSQLNGNGGNGSNGGGGFLRSRAVNNTDNCYLGKVDHFYGLAITAYISYSGMKFVMIHGNSANSSVVIDDNNMRSFYQEVHELYVKTLMNPFYKITDPIRSPAFDSRVRTLARKHLSK
binding: no binding

B3: TRS31 (two-hybrid fusion) (protein, UniProt Q03337 1-283)
chain: MSQRIIQPSASDQQFPGKSDGYEYTVGPKQAITSEASTTYIPSRIYSESLLFKRQEASLSAMAFLFQEMISQLHRTCKTAGDFETKLSDYGHNIGIRLLELLNFRASVSPSSLPRASAFLSQNESSSKLSNASNSPGMLANSSTATSASANERLQEKQTESLSNYITKMRRRDLKILDILQFIHGTLWSYLFNHVSDDLVKSSERDNEYMIVDNFPTLTQFIPGENVSCEYFVCGIIKGFLFNAGFPCGVTAHRMPQGGHSQRTVYLIQFDRQVLDREGLRFG
binding: no binding

B4: TRS23 (two-hybrid fusion) (protein, UniProt Q03784 1-219)
chain: MAIETILVINKSGGLIYQRNFTNDEQKLNSNEYLILASTLHGVFAIASQLTPKALQLTQQTNIENTIPYIPYVGMSSNRSDTRNGGGNNNKHTNNEKLGSFKGDDFFKEPFTNWNKSGLRQLCTDQFTMFIYQTLTGLKFVAISSSVMPQRQPTIATTDKPDRPKSTSNLAIQIADNFLRKVYCLYSDYVMKDPSYSMEMPIRSNLFDEKVKKMVENLQ
binding: no binding

B5: BET3 (two-hybrid fusion) (protein, UniProt P36149 1-193)
chain: MVSTTQSRSLKAMGEEIWKNKTEKINTELFTLTYGSIVAQLCQDYERDFNKVNDHLYSMGYNIGCRLIEDFLARTALPRCENLVKTSEVLSKCAFKIFLNITPNITNWSHNKDTFSLILDENPLADFVELPMDAMKSLWYSNILCGVLKGSLEMVQLDCDVWFVSDILRGDSQTEIKVKLNRILKDEIPIGED
binding: no binding

B8: TCA17 (two-hybrid fusion) (protein, UniProt P32613 1-152)
chain: MSLRPCFVSLIDESDKPILIYVPNEAENEMNDVLKYNVLSNISLDYFESALVEWHSLDSKPLLKSIFQLEGVSVFAMLIKQTGLKIVIGFEQKSLSGADDEFEAINQIFETVRKIYIRVKCNPLLVSGDEKSIIKSLERKFDELFISTEVEL
binding: no binding

B10: TRS33 (two-hybrid fusion) (protein, UniProt Q99394 1-268)
chain: MSSTHSNNVGHPQSSPQGPLTEQQRAQQQYQIFENSLPKVSQSVYQMLLNEMVPLAMGIERQISGDVISSDSNVTSENGNINNMIKRLKIEEHHTVDIIRSHNLIHELYKADEEEKEKVLARLRNIGFQIGLKLSELLIFSNNPNLKFKEMDLLLIMKFICRDVWKQIFGKQIDNLKTNHRGTFYLLDYDYRPIQSFSLEEDAKNEELKMIEPFLEIPVGIIRGVLSSLGYSSEEVICLASFIDRPTDRPKTAFPKGVSFHVQVTMPQ
binding: no binding

B11: BET5 (two-hybrid fusion) (protein, UniProt Q03630 1-159)
chain: MGIYSFWIFDRHCNCIFDREWTLASNSASGTINSKQNEEDAKLLYGMIFSLRSITQKLSKGSVKNDIRSISTGKYRVHTYCTASGLWFVLLSDFKQQSYTQVLQYIYSHIYVKYVSNNLLSPYDFAENENEMRGQGTRKITNRNFISVLESFLAPMVNQ
binding: no binding

— article PMC4877375
